Data published in the supplement of paper PMC10126150.
Sequences with one replicate were seen in a single cluster, so their values are uncertain.

Tested on: ATP
Assay: switch fluorescence ratio, 500 uM ATP over buffer (Cy3 cluster intensity, sum of 5 cycles each) (fold (ratio)); higher = stronger signal-on switching upon ATP binding; sequences stand for … in TCGTCGGCAGCGTCAGATGTGTATAAGAGACAGTTTTTTTTTTTTTTTTTTTTTTTTT…TC
Conditions: aptamer strand: ATP DNA aptamer (quencher-CACCTGGGGGAGTATTGCGGAGGAAGG + anchor), 100 nM annealed; ATP concentration: 500 uM; one replicate
Procedure, shortened: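 Cy3-labelled switching-strand clusters on a modified Illumina MiSeq flow-cell were annealed to 100 nM quencher-labelled ATP aptamer, imaged in selection buffer, then imaged after 15 min with 500 uM ATP at 22 °C. Five buffer/ATP cycles ran, with NaOH stripping and re-annealing between them. The fluorescence ratio is summed target-cycle over summed buffer-cycle Cy3 intensity per cluster, averaged per switch-domain sequence. Clusters outside 100-1000 RFU were excluded.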
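Note: ATP exposure 15 min at 22 °C before imaging.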

| Sequence | switch fluorescence ratio |
| --- | --- |
| TTAGGCGATA | 1 |
| GCTTCTCGCG | 0.992 |
| GTAGGTGGGA | 0.976 |
| AAGCGGTTGC | 1.02 |
| CTAACCTGTT | 1.03 |
| TCAAGCAATC | 4.73 |
| AAGCTGTATT | 0.994 |
| GGAGTTGTGG | 0.942 |
| CCCCCACGA | 1.74 |
| TATCAGTGGC | 0.971 |
| GTTGGGCAGA | 0.949 |
| GCGCGACTGA | 1.06 |
| TAGCTGGTAG | 1.02 |
| TGGGAAAGAC | 1.08 |
| CACTTTTGTC | 1.07 |
| TCACATTCGC | 1.09 |
| AGATAGGTTT | 0.996 |
| AGGACCGATT | 0.998 |
| CGATAAAAAG | 0.989 |
| TCCGGGAACG | 1.22 |
| ACTAACCTCG | 1.13 |
| TGTGTTTAAT | 0.971 |
| TGGGGGCTCC | 0.993 |
| ACGTCTTACG | 0.962 |
| TGCGATGACA | 0.991 |
| ACTCGCGCCA | 1.6 |

| Sequence | switch fluorescence ratio |
| --- | --- |
| TTTTCTGTAC | 1.07 |
| CGGAAGCCCA | 0.975 |
| GGTTGCTTCC | 1.54 |
| TCCTTTTACG | 1.03 |
| GAGACTCATA | 1.05 |
| CCAATTACGT | 1.1 |
| GTAATTGAGC | 1 |
| GCTACTTTCC | 2.03 |
| AGTCATACAA | 1.03 |
| TCTGATGGGT | 0.985 |
| ATACGCGCGT | 0.988 |
| AGAAGATAGA | 1.03 |
| GTGGAAAGAC | 1.13 |
| GGGGATATTG | 0.977 |
| CTGGTGATAA | 1 |
| TTGTTTGTCG | 1.1 |
| CTCTAACAAG | 1 |
| ATAGTTAGGG | 1.04 |
| AAGATTCGGA | 0.892 |
| GCCTCAAGAT | 1.42 |
| TTAGTACGGC | 1.03 |
| CGGGACCTG | 1.01 |
| CTGTGGTGAG | 0.979 |
| CTATGTAGA | 1.04 |
| AATTCGTATT | 0.964 |
| AAGCCAGGA | 1.03 |

| Sequence | switch fluorescence ratio |
| --- | --- |
| ATTCAGATTC | 1.02 |
| TATTGTAAAA | 1.08 |
| TTCTAGTGGA | 0.967 |
| CACATCAAAA | 1.01 |
| GATCATGATA | 1.02 |
| TTCATTACCA | 0.998 |
| CAAGTAGATA | 0.993 |
| GAGCCTTGCA | 1.01 |
| CCTTCACTTC | 1.19 |
| ACCCGAGATC | 0.969 |
| TACAGGTATA | 1 |
| TTAGTTGTG | 0.986 |
| CGTGGGCAGG | 1.04 |
| GCGCTGGGG | 1.02 |
| GAGTCACCGA | 1.01 |
| TGATGGAGG | 0.985 |
| CCCGTCGTCT | 0.975 |
| CGTAGCTCAC | 6.92 |
| TTATCGCCGG | 0.924 |
| CCTAATAAGG | 1.05 |
| GGGGTCATG | 0.982 |
| CATGCGCAAG | 4.38 |
| AGTGGCGTGC | 0.982 |
| GCTGACCCTA | 1.03 |
| TTGGTACGTC | 1.04 |
| GGCTCAAATA | 1.04 |

| Sequence | switch fluorescence ratio |
| --- | --- |
| GATGTGTGTG | 0.977 |
| GTGATGGCTC | 0.988 |
| TACTGGTTAC | 1.07 |
| CGCCGTCCAC | 1.18 |
| GAATAGAATG | 0.976 |
| ATTTACGGTA | 1.35 |
| GCATGGAATA | 0.968 |
| GAGTTAACGT | 0.986 |
| TAACGGGTGC | 1.17 |
| TACGTCAGAA | 1.06 |
| GAGGGGAAT | 1.05 |
| ATCAACACAA | 0.978 |
| GGTGCATGAA | 0.987 |
| CTTAAAACTC | 1.13 |
| AGGCCGGCAT | 0.987 |
| ATTATGCGTC | 0.997 |
| CGTCCCCGGA | 1.02 |
| TAAGTTCTGT | 0.971 |
| TGGTACTCTT | 1 |
| CGTTCATCTG | 1.02 |
| TTTAGTTTAC | 1.02 |
| CGGCGTTTCT | 0.996 |
| TTCATGTTCT | 0.979 |
| TGGCAGACAG | 1.02 |
| GTGACAGCGG | 0.998 |
| CCGGTAGGTC | 0.987 |

| Sequence | switch fluorescence ratio |
| --- | --- |
| CACTAGTTGC | 1.01 |
| GACCTGTAGC | 1.07 |
| CACAGCTCTT | 2.72 |
| ATTTTAGATT | 1.02 |
| TGGCGCTTCA | 1.05 |
| CTGGGCAGTC | 1.32 |
| TGGTAGACGA | 0.969 |
| TCTCGGATGC | 1.03 |
| CAGAATGAAA | 1.01 |
| TCGTTAATAA | 1.23 |
| TTAGGGGTTC | 0.985 |
| CGTGGTCATG | 0.951 |
| TCTGATCTGC | 1.01 |
| CAAGAATTAT | 0.956 |
| TTTATGGAT | 0.973 |
| CAAGAGTACA | 1.06 |
| ATCTCACGTG | 0.991 |
| TTCGGCGC | 1.03 |
| AAATACACAA | 1.05 |
| TACATGTG | 0.983 |
| CCACTAGCCG | 1.06 |
| CGACATTACA | 1.34 |
| TTTACTCATA | 1.04 |
| ATATCTGAAG | 1.03 |
| ATGATTACTG | 1 |
| CGCTACTTGG | 1.03 |

| Sequence | switch fluorescence ratio |
| --- | --- |
| CACCCGTGCA | 1.11 |
| TGCAATTATT | 1.38 |
| TGTGGGAAGC | 1 |
| CGGAGTCCAT | 1.08 |
| ACCTTTTATA | 1 |
| GGCGTCCAGG | 1.12 |
| CTGACCCCTT | 1.03 |
| TATGACGAAT | 0.984 |
| CGGGTGAACG | 0.975 |
| TCCTTAATAG | 1.15 |
| GATCTAACTT | 1.07 |
| GTTGTAGAGC | 0.978 |
| ATGCTCCATC | 0.981 |
| ATGTATATAT | 0.994 |
| TTGATCGCAT | 1.09 |
| TTATGAAGCG | 1.01 |
| CGGCGAGTGC | 0.998 |
| ATGCGGGAAT | 1 |
| CAGACATGGC | 1.12 |
| GGGTTTGCAG | 1.05 |
| TTTTCCCGCT | 1.11 |
| GGCTGTTGAC | 0.993 |
| TGATGTTCAT | 0.994 |
